Where a name gives a salt, the structure may show the parent alone. Read-outs that look alike come from different tables or passages of the source.
Assays:
[1] = molecular target: T1, cardiac sarcolemmal membranes (dihydropyridine binding site) (Canis lupus familiaris, UniProt A0A8I3QY31); assay: [3H] nimodipine specific binding to dog heart membranes; conditions: for stimulation of [3H] nimodipine specific binding: 0.17 nM [3H] nimodipine, 15 min at 37° C., FIG. 2
T1 construct: Membrane fractions of highly enriched in plasma membrane markers were prepared from dog ventricles; from tissue; host or cells: dog heart ventricle, membrane fraction enriched in plasma membrane (sarcolemma)
Experimental: FIG. 1--Membrane fractions of highly enriched in plasma membrane markers were prepared from dog ventricles according to Van Alstyne et al. 20-50 μg protein was incubated for 15 min at 37° C. in 1 ml medium containing 50 mM Tris-HCl (pH 7.4), different concentrations of [^3 H] nimodipine (160 Ci/mmol) and in the absence (O) or the presence of 10^-5 M diltiazem (Δ) or of 10^-6 M nimodipine (.quadrature.). The reaction was stopped by addition of 5 ml of ice-cold double-distilled water and filtration on Whatmann GF/F glass fiber filters. The filters were washed three times and the trapped radioactivity counted by liquid scintillation spectrometry. Specific binding was taken as the difference between control binding and the binding in the presence of unlabelled nimodipine (non-specific).
FIG. 2--Dog heart membranes were incubated for 15 min at 37° C. in the presence of 0.17 nM [^3 H] nimodipine, 50 mM Tris-HCl (pH 7.4) and the different concentrations of nifedipine (Δ), verapamil (X), d-cis-diltiazem (O), 1-cis-diltiazem ( ), thiazesim (.quadrature.) or clonazepam ( ). The specific binding was estimated as described in the legend to FIG. 1.
Incubation of 0° C. was carried out for 120 minutes. […] Each drug was tested on 4 different membrane preparations (means ±S.E.M.).

[2] = test system: retrogradely perfused rat hearts (Langendorff preparation); assay: contractility (dP/dt) of retrogradely perfused rat hearts (Langendorff preparation); conditions: for IC50: Rattus norvegicus; for potentiation of the negative inotropic response of nimodipine: low concentration of diltiazem isomer (250 nM) perfused before nimodipine
[3] = read-out: I50, negative inotropy (contractile force, dP/dt)

T1 sequence (A0A8I3QY31 1-2188): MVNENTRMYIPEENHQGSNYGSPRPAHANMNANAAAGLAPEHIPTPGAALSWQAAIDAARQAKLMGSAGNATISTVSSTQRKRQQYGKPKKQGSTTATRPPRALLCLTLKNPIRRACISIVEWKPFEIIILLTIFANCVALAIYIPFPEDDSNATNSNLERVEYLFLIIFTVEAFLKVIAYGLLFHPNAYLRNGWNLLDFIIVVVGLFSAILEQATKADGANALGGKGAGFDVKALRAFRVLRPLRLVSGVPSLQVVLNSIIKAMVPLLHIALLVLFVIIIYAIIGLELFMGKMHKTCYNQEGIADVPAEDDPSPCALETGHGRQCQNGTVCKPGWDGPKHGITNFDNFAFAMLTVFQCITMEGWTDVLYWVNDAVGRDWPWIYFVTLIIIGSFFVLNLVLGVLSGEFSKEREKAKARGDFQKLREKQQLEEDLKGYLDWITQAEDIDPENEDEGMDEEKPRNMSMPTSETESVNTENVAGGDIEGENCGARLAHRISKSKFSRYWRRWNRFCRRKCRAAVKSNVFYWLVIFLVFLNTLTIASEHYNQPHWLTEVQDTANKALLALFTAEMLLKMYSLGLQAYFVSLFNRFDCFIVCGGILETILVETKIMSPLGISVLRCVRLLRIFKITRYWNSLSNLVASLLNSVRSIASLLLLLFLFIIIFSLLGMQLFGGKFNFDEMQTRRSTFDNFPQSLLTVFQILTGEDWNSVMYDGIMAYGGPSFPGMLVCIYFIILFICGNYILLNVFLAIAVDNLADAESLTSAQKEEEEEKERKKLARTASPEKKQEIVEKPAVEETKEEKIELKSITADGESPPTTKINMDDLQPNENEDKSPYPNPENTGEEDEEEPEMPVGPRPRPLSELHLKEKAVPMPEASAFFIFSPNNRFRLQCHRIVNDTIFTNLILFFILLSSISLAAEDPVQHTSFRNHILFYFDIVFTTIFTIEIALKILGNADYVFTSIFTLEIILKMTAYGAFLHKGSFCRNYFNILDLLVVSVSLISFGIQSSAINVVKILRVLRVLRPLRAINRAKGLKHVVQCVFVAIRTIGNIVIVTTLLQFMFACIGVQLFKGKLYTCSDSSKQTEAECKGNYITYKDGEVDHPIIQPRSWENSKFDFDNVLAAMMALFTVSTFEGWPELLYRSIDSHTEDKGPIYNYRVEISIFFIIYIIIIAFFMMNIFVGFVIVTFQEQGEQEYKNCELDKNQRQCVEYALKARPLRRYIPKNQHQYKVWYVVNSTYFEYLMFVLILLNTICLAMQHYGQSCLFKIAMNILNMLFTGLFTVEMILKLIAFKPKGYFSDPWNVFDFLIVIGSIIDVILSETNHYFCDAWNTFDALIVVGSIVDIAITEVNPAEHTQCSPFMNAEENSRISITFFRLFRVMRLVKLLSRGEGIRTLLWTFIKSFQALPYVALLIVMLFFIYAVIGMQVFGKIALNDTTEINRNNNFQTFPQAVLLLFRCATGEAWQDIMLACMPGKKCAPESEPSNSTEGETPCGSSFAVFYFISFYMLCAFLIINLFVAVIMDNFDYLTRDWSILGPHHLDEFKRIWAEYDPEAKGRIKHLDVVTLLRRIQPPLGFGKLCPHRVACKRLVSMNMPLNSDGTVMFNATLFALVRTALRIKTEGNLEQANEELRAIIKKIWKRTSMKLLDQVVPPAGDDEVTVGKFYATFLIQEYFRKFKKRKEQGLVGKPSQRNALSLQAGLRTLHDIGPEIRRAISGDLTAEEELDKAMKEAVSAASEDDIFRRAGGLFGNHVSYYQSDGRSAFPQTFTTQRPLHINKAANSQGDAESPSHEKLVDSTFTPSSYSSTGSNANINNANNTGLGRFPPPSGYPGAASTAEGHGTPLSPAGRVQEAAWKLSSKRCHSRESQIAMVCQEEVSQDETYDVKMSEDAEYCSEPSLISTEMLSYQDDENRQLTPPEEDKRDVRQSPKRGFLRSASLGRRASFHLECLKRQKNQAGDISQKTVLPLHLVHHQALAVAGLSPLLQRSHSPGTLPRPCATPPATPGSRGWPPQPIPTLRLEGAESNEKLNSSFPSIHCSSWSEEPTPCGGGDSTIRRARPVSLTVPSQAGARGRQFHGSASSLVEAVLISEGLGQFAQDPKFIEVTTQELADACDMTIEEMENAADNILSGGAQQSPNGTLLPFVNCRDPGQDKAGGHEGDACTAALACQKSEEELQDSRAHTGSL

O=C1CN=C(c2ccccc2Cl)c2cc([N+](=O)[O-])ccc2N1 [clonazepam]
stimulation of [3H] nimodipine specific binding [1]: not produced

COc1ccc([C@@H]2Sc3ccccc3N(CCN(C)C)C(=O)[C@@H]2OC(C)=O)cc1 [d-cis-diltiazem]
stimulation of [3H] nimodipine specific binding [1]: produced | IC50 [2, 3]: 800 nM | potentiation of the negative inotropic response of nimodipine [2]: drastically potentiated

COc1ccc(C2Sc3ccccc3N(CCN(C)C)C(=O)C2OC(C)=O)cc1 (stereo not drawn) [diltiazem, 3-acetoxy-2,3-dihydro-5-[2-(dimethylamino)ethyl]-2-(p-methyoxyphenyl)-1,5-benzothiazepin-4(5H)-one hydrochloride]
effect on non-specific binding of [3H] nimodipine ([1]; 10^-5 M diltiazem): without effect | effect on apparent number of [3H] nimodipine binding sites ([1]; 10^-5 M diltiazem, Scatchard analysis, FIG. 1): increasing the apparent number of binding sites | decrease in contractility by itself ([2]; 250 nM): only a slight decrease | reversibility of negative inotropic response ([2]; washout): fully reversible | reversibility of potentiation of nimodipine response ([2]; washout): reversible | time for effects to be washed out ([2]; washout): ≤ 30 min

COc1ccc([C@H]2Sc3ccccc3N(CCN(C)C)C(=O)[C@H]2OC(C)=O)cc1 [l-cis-diltiazem]
stimulation of [3H] nimodipine specific binding [1]: not produced | IC50 [2, 3]: > 120000 nM | potentiation of the negative inotropic response of nimodipine [2]: ineffective

COC(=O)C1=C(C)NC(C)=C(C(=O)OC)C1c1ccccc1[N+](=O)[O-] [nifedipine]
stimulation of [3H] nimodipine specific binding [1]: not produced

COCCOC(=O)C1=C(C)NC(C)=C(C(=O)OC(C)C)C1c1cccc([N+](=O)[O-])c1 (stereo not drawn) [nimodipine, isopropyl-(2-methoxyethyl)-2,6-dimethyl-4-(3-nitrophenyl)-1,4-dihydropyridine-3,5-dicarboxylate]
Kd ([1]; cardiac membranes): 0.2 nM | IC50 [2, 3]: 1100 nM | IC50 ([2]; read-out: I50 in hearts not treated with diltiazem): 1100 nM | IC50 ([2]; read-out: I50 of nimodipine in the presence of d-cis-diltiazem): 33 nM | IC50 ([2]; read-out: I50 of nimodipine in the presence of l-cis-diltiazem): 730 nM | IC50 ([2]; read-out: observed I50 for nimodipine with diltiazem): 33 nM

CN(C)CCN1C(=O)CC(c2ccccc2)Sc2ccccc21 (stereo not drawn) [thiazesim]
stimulation of [3H] nimodipine specific binding [1]: not produced
